Structures can show the parent of a compound that is named as a salt. ± gives the standard deviation of the averaged measurements. In all, about 2,000 compounds were measured (“cell viability relative to DMSO control (compound alone)”: median about 0.98, lowest 2% from about 0.23 on). The list shows a part of the results.
tested on: PDC-DUC18828; assay: cell viability relative to DMSO control (compound alone) (fraction); PDC-DUC18828 is a patient-derived cholangiocarcinoma cell line; higher = less growth inhibition; conditions: 1 µM; 72 h
Protocol: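 Selleck Bioactive library screen in the patient-derived FGFR2-G3BP2 fusion-positive ICC cell line PDC-DUC18828 (500 cells/well). Each compound was tested at 1 uM alone, in triplicate, for 72 h. Viability was read by CellTiter-Glo and normalised to plate DMSO controls.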

Compound	cell viability
CNc1nc(Nc2cn(C(C)(C)C#N)nc2C)ncc1C(F)(F)F	1.02 ± 0.032
C=CC(=O)N1C/C(=C\c2ccc([N+](=O)[O-])cc2)C(=O)/C(=C/c2ccc([N+](=O)[O-])cc2)C1	0.244 ± 0.014
COC(=O)C1=C(C#N)NC(C)=C(C(=O)OC(C)C)C1c1cccc([N+](=O)[O-])c1 (centres undefined) [Nilvadipine]	1.01 ± 0.058
C[C@H](CCC(=O)O)[C@H]1CC[C@H]2[C@@H]3[C@@H](O)C[C@@H]4C[C@H](O)CC[C@]4(C)[C@H]3CC[C@]12C [Ursodiol]	0.956 ± 0.0099
O=C(CCCN1CCN(c2ccccn2)CC1)c1ccc(F)cc1 [Azaperone]	0.921 ± 0.052
O=C(Nc1ccncc1)c1cc([N+](=O)[O-])ccc1Cl	0.904 ± 0.025
C[C@]12CC[C@@H]3c4ccc(OC(=O)c5ccccc5)cc4CC[C@H]3[C@@H]1CC[C@@H]2O [Estradiol Benzoate]	1.01 ± 0.021
Cc1ccc(F)c(NC(=O)Nc2ccc(-c3cccc4[nH]nc(N)c34)cc2)c1 [Linifanib (ABT-869)]	0.915 ± 0.031
CC(C)OC(=O)C1=CN(C(=O)c2ccc(F)c(F)c2)CC(C)(C)c2c1[nH]c1ccccc21	1.08 ± 0.053
CN1CCN(C(c2ccccc2)c2ccccc2)CC1 [Cyclizine 2HCl]	1.02 ± 0.027
CC(C)(C)[N+]([O-])=Cc1ccc(S(=O)(=O)O)cc1S(=O)(=O)O	0.972 ± 0.099
O=C(/C=C\n1cnc(-c2cc(C(F)(F)F)cc(C(F)(F)F)c2)n1)N1CC(F)(F)C1	0.591 ± 0.057
Cc1ccc(NC(=O)c2cccc(C(C)(C)C#N)c2)cc1Nc1ccc2ncn(C)c(=O)c2c1	0.8757 ± 0.0044
OCCN(CCO)c1nc(N2CCCCC2)c2nc(N(CCO)CCO)nc(N3CCCCC3)c2n1 [Dipyridamole]	0.941 ± 0.046
CC[C@H](CO)Nc1nc(NCc2ccccc2)c2ncn(C(C)C)c2n1 [Roscovitine (Seliciclib,CYC202)]	1.03 ± 0.023
CC(C)(CO)C(O)C(=O)NCCC(=O)O [Calcium D-Panthotenate]	1 ± 0.036
Cc1c(-c2cnccn2)ssc1=S [Oltipraz]	0.958 ± 0.034
Cc1cccc(CC(=O)N2CCc3c2ccc(-c2cn(C)c4ncnc(N)c24)c3F)n1	0.939 ± 0.047
COc1ccc(-n2c(SCCCN3C(=O)c4cccc5cccc(c45)C3=O)nnc2-c2ccncc2)cc1	0.848 ± 0.035
C/C(=C\C(=O)OCCCCCCCCC(=O)O)C[C@@H]1OC[C@H](C[C@@H]2O[C@H]2[C@@H](C)[C@H](C)O)[C@@H](O)[C@H]1O [Mupirocin]	0.995 ± 0.14
COc1ccc(C2=N[C@@H](c3ccc(Cl)cc3)[C@@H](c3ccc(Cl)cc3)N2C(=O)N2CCNC(=O)C2)c(OC(C)C)c1 [Nutlin-3a]	1.02 ± 0.065
COc1ccc(C2=N[C@@H](c3ccc(Cl)cc3)[C@@H](c3ccc(Cl)cc3)N2C(=O)N2CCNC(=O)C2)c(OC(C)C)c1 [Nutlin-3]	1.14 ± 0.038
CN/C(=N\CCSCc1nc[nH]c1C)NC#N [Cimetidine]	1.02 ± 0.03
NC(=O)c1ccc(I)c([N+](=O)[O-])c1 [Iniparib (BSI-201)]	1.07 ± 0.074
O=C(O)c1cc(/N=N/c2ccc(S(=O)(=O)Nc3ccccn3)cc2)ccc1O [Sulfasalazine]	1.07 ± 0.016
c1coc(CNc2ncnc3[nH]cnc23)c1 [Kinetin]	0.969 ± 0.034
CS(=O)(=O)c1ccc(-c2nnc(/C=C/c3nnc(-c4ccc(C#N)cc4)o3)n2-c2ccccc2Cl)nc1	0.879 ± 0.042

Compound	cell viability
C[C@]12CCC3=C4CCC(=O)C=C4CC[C@H]3[C@@H]1CC[C@@]2(O)CC#N [Dienogest]	1.04 ± 0.05
C[C@@H]1C[C@H]2[C@@H]3CCC4=CC(=O)C=C[C@]4(C)[C@@]3(Cl)[C@@H](O)C[C@]2(C)[C@@]1(OC(=O)c1ccco1)C(=O)CCl [Mometasone furoate]	0.918 ± 0.042
CCOC(=O)[C@H](CCc1ccccc1)N[C@@H](C)C(=O)N1C(=O)N(C)C[C@H]1C(=O)O [Imidapril HCl]	1.15 ± 0.015
COc1cc2ncnc(Nc3cccc(Cl)c3)c2cc1OC [AG-1478 (Tyrphostin AG-1478)]	0.942 ± 0.079
O=c1oc2cc(O)ccc2s1 [Tioxolone]	1.07 ± 0.04
CCn1c(-c2nonc2N)nc2c(C#CC(C)(C)O)ncc(OC[C@H]3CCCNC3)c21	0.909 ± 0.04
O=S(=O)(O)Oc1ccc(C(c2ccc(OS(=O)(=O)O)cc2)c2ccccn2)cc1 [Sodium Picosulfate]	0.998 ± 0.013
CCC[C@H](N[C@H]1CCc2cc(F)cc(F)c2C1)C(=O)Nc1cn(C(C)(C)CNCC(C)(C)C)cn1	0.988 ± 0.053
CN1C(=O)C(Cc2c[nH]c3ccccc23)NC1=S (centres undefined) [Necrostatin-1]	1.01 ± 0.021
Cc1cc2c(s1)Nc1ccccc1N=C2N1CCN(C)CC1 [Olanzapine]	1.02 ± 0.02
CNC(=O)c1ccc(Nc2ncc(C(F)(F)F)c(NCc3nccnc3N(C)S(C)(=O)=O)n2)cc1	0.884 ± 0.029
Cc1ccc(NC(=O)C2(c3ccc4c(c3)OC(F)(F)O4)CC2)nc1-c1cccc(C(=O)O)c1 [VX-809 (Lumacaftor)]	1.1 ± 0.069
Cn1cc(/C=C2\C(=O)Nc3cccnc32)c2ccccc21	1.03 ± 0.034
OCCOc1ccc(/C(=C(/CCCl)c2ccccc2)c2ccccc2)cc1 [Ospemifene]	1.01 ± 0.062
CC(C)OC(=O)C(C)(C)Oc1ccc(C(=O)c2ccc(Cl)cc2)cc1 [Fenofibrate]	1.05 ± 0.037
CC(=O)c1c(C)c2cnc(Nc3ccc(N4CCNCC4)cn3)nc2n(C2CCCC2)c1=O	0.757 ± 0.02
CCN1C[C@H](C)n2c(c(O)c3c(=O)n(Cc4ccc(F)c(Cl)c4)nc(C(=O)NC)c32)C1=O	0.995 ± 0.047
CNC(=O)c1cc(Oc2ccc3nc(N[C@@H]4CCCC[C@H]4O)sc3c2)ccn1	0.988 ± 0.067
CC(C)(C)c1ccc(S(=O)(=O)/C=C/C#N)cc1	0.616 ± 0.027
NC(=O)c1ccc(-c2nc(-c3ccccn3)c(-c3ccc4c(c3)OCO4)[nH]2)cc1	1.01 ± 0.042
Cc1cn(-c2cc(NC(=O)c3ccc(C)c(Nc4nccc(-c5cccnc5)n4)c3)cc(C(F)(F)F)c2)cn1 [Nilotinib (AMN-107)]	0.949 ± 0.034
C[C@@H](O[C@H]1OCCN(Cc2n[nH]c(=O)[nH]2)[C@H]1c1ccc(F)cc1)c1cc(C(F)(F)F)cc(C(F)(F)F)c1 [Aprepitant]	0.957 ± 0.031
CCCNC(=O)Nc1ccc(Oc2ncnc3cc(OC)c(OC)cc23)cc1Cl	0.99 ± 0.04
CCCN(CCC)CCc1cccc2c1CC(=O)N2 [Ropinirole HCl]	1.01 ± 0.019
CC(=O)O[C@H]1C(=O)[C@@]2(C)[C@H]([C@H](OC(=O)c3ccccc3)[C@]3(O)C[C@H](OC(=O)[C@H](O)[C@@H](NC(=O)c4ccccc4)c4ccccc4)C(C)=C1C3(C)C)[C@]1(OC(C)=O)CO[C@@H]1C[C@@H]2O [Paclitaxel]	0.287 ± 0.027
NC(=O)c1cccc(-c2cccc(OC(=O)NC3CCCCC3)c2)c1	1.01 ± 0.023
CN1CCC(Nc2nc(Nc3ccc(Oc4ccccc4)cc3)c3c(=O)[nH]cc(Br)c3n2)CC1	0.771 ± 0.062

Compound	cell viability
Cn1cnc2c(F)c(Nc3ccc(Br)cc3F)c(C(=O)NOCCO)cc21	0.921 ± 0.038
C#Cc1cccc(Nc2ncnc3cc(OCCOC)c(OCCO)cc23)c1	1.05 ± 0.034
CC(C)C[C@H](NC(=O)[C@H](Cc1ccccc1)C[C@@H](O)[C@H](Cc1ccccc1)NC(=O)OC(C)(C)C)C(=O)N[C@@H](Cc1ccccc1)C(N)=O	0.973 ± 0.057
COc1cc2nc(N3CCCC3)nc(NCCCCCN3CCCC3)c2cc1OC	1.01 ± 0.035
NC(=O)c1cnccn1 [Pyrazinamide]	1.01 ± 0.02
Nc1nc(N)c(N=O)c(OCC2CCCCC2)n1	0.892 ± 0.033
Nc1ccc(-c2ccc3ncc4ccc(=O)n(-c5cccc(C(F)(F)F)c5)c4c3c2)cn1 [Torin 2]	0.248 ± 0.0066
CSc1nc2cc(Cl)c(Oc3cccc(Cl)c3Cl)cc2[nH]1 [Triclabendazole]	1.03 ± 0.084
Cc1cnc(-c2ccccc2C(C)C)nc1NCc1ccc(-n2ccnn2)cc1	0.968 ± 0.062
CCCCCCCCCCCCCCCCn1cc[n+](Cc2ccccc2)c1C	0.429 ± 0.033
CC1(C)S[C@@H]2[C@H](NC(=O)[C@H](N)c3ccccc3)C(=O)N2[C@H]1C(=O)O [Ampicillin Trihydrate]	1.02 ± 0.075
CC1(C)S[C@@H]2[C@H](NC(=O)[C@H](N)c3ccccc3)C(=O)N2[C@H]1C(=O)O [Ampicillin sodium]	0.934 ± 0.035
Cc1ccccc1C(C(=O)NC1CCCCC1)N(C(=O)Cn1ccnc1C)c1cccc(F)c1 (centres undefined)	1.04 ± 0.033
O=C(O)c1cc(=O)[nH]c(=O)[nH]1 [Orotic acid (6-Carboxyuracil)]	0.988 ± 0.017
Oc1ccc(-c2nc(-c3ccc(F)cc3)c(-c3ccncc3)[nH]2)cc1	0.989 ± 0.016
O=C(Nc1ccc(S(=O)(=O)Nc2ccccc2Cl)c(Cl)c1)c1ccccn1	1.03 ± 0.061
Cc1ccc(C(=O)Nc2ccc(CN3CCN(C)CC3)c(C(F)(F)F)c2)cc1C#Cc1cnc2[nH]ncc2c1	0.295 ± 0.0066
O=C(NC[C@H](O)CO)c1ccncc1Nc1ccc(I)cc1F	0.969 ± 0.024
Cc1ccc(-n2nc(C(C)(C)C)cc2NC(=O)NCc2cc(F)ccc2Oc2ccc3c(cnn3CCO)c2)cc1 [Pexmetinib (ARRY-614)]	0.847 ± 0.033
Cc1ncc([N+](=O)[O-])n1CC(C)O (centres undefined) [Secnidazole]	1.05 ± 0.052
OCCn1cc(-c2cnc3nnn(Cc4ccc5ncccc5c4)c3n2)cn1	1.03 ± 0.062
C[C@]12CCC(=O)C=C1[C@@H]1C[C@@H]1[C@H]1[C@@H]3[C@@H]4C[C@@H]4[C@@]4(CCC(=O)O4)[C@@]3(C)CC[C@@H]12 [Drospirenone]	0.931 ± 0.019
COc1ccc2cc([C@H](C)C(=O)O)ccc2c1 [Naproxen]	1.097 ± 0.005
N#Cc1cc(CN2CCC(Nc3ncnc4sc(Cl)cc34)CC2)ccc1F	0.976 ± 0.019
O=C1NC(=O)/C(=C/c2ccc3nccc(-c4ccncc4)c3c2)S1	0.991 ± 0.051
